Hit rate of the full screen: of about 46,000 compounds, about 60 (0.1%) were called active. About 3% were inconclusive and are not listed. The call rests on the fitted dose curve; in most records, active means well fitted inhibition curve with a large enough effect; inconclusive means small, poorly fitted or top-dose-only effect; inactive means no such curve, though single readings can be large or run the other way. This is one part of the list.
assay: Primary qHTS assay for Inhibitors of ovarian cancer metastasis using an organotypic tumor microenvironment (TME) model.; further: nearly all actives have a fitted effect of over 65% in size;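 on activity change, negative = inhibition: plate controls were DMSO wells for no effect and tomatine positive control wells for full effect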; conditions: SKOV3ip1-GFP adhesion/invasion on 3D omental model, fluorescence; series mostly up to 45.8 µM; activity change, negative = inhibition: at the top concentration
How it was run: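 qHTS, 4-pt dose (0.36-46 umol/L); SKOV3ip1-GFP, 1,200 cells/well, no FBS; primary omental fibroblast/mesothelial co-culture 48 h pre-grown; 2 h RT + 16 h 37 C; PBS wash, 4% PFA; GFP count 488/509 nm.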

Activity change, negative = inhibition, inactive:
Cc1cccc(OCc2ccc(-c3nc(C#N)c(N4CCN(c5ccccc5)CC4)o3)o2)c1 5.68%
COC(=O)c1c(-c2cccs2)csc1NC(=O)c1cc(OC)cc(OC)c1 8.94%
Cc1cc(Cl)ccc1NC(=O)CCS(=O)(=O)c1cc2c(cc1C)NC(=O)CO2 -11.1%
Cc1cc(C)cc(NC(=O)C(Cc2ccccc2)N2Cc3ccccc3C2=O)c1 (configuration not stated) -11.2%
COc1cc(C(C)=O)ccc1OCCCN1CCC(c2noc3cc(F)ccc23)CC1 11.3%
Clc1cccc(-n2ncc3c(NCCCc4ccccc4)ncnc32)c1 -17.6%
Cc1ccc(CNC(=O)C(CC(C)C)N2Cc3ccccc3C2=O)cc1 (configuration not stated) -1.79%
O=C(NCCSc1c(-c2ccc(Br)cc2)[nH]c2ccccc12)c1ccc(S(=O)(=O)N2CCOCC2)cc1 13.9%
Cc1nnsc1C(=O)Oc1ccccc1Cl 8.64%
O=C1C(c2ccc(C(F)(F)F)cc2)=C(Nc2ccc(Cl)cc2)c2ccccc21 -19.6%
Cc1onc(-c2ccccc2)c1C(=O)N[C@@H]1C(=O)N2[C@@H](C(=O)O)C(C)(C)S[C@@H]12 -17.4%
Cc1ccccc1C(=O)Nc1nnc(S(=O)(=O)N2CCCc3ccccc32)s1 -2.52%
COc1ccc(C(=O)N2CCC(C(=O)Nc3ccc(OC)cc3OC)CC2)cc1 0.0841%
Cc1ccc(-n2c(=O)c3sccc3n(Cc3cc(=O)n4ccccc4n3)c2=O)cc1 5.03%
COc1ccc(C(=O)N=c2sc3cc(Cl)ccc3n2C)cc1 1.18%
CCn1c(C(=O)Nc2cc(C)cc(C)c2)cc2sc(Cl)cc21 -6.66%
Cc1ccc(NC(=O)CSc2nnc(-c3cc4occc4n3C)n2-c2ccccc2C)cc1F -3.22%
CSc1ccccc1NC(=O)CCS(=O)(=O)c1nc(-c2cccs2)cc(C(F)(F)F)n1 -4.28%
Cc1ccc(-c2cn3c4c(=O)n(C)c(=O)n(C)c4nc3n2-c2cccc(Cl)c2)cc1 6.76%
CCCCN(C)c1ncnc2c1cnn2-c1cccc(Cl)c1 3.57%
N#Cc1ccccc1NC(=O)C(=O)NCC(c1cccnc1)N1CCc2ccccc2C1 (configuration not stated) 7.34%
CCc1ccc(S(=O)(=O)c2nnn3c2nc(Nc2cccc(C)c2C)c2sccc23)cc1 1.62%
COc1cc(-c2nnc(SCC(=O)N3CCCc4ccccc43)o2)cc(OC)c1OC -5.46%
COc1ccc(N(CC(=O)Nc2ccc(Cl)cc2C)S(=O)(=O)c2ccccc2)c(OC)c1 12.9%
O=C(NCc1ccccc1Br)c1ccc(-n2cnc3cccnc32)cc1 -2.78%
CCOc1ccccc1NC(=O)C1CCCN(S(=O)(=O)c2ccc3c(c2)CCCN3C(C)=O)C1 (configuration not stated) 2.94%
COc1cccc(CNc2ccc3c(c2)ncn3C)c1OC 5.02%
CCC(=O)N1CCc2cc(S(=O)(=O)NCCC(=O)Nc3cccc(C)c3C)ccc21 1.7%
Cc1cc(C)cc(C(=O)Nc2c3c(nn2-c2ccccc2C)CS(=O)(=O)C3)c1 11.6%
CCOC(=O)c1c(-c2ccccc2)csc1NC(=O)c1cc(-c2cccc(OC)c2)on1 -3.69%
Cc1ccc(Cl)cc1N1CCN(C(=O)Cn2nc(C)n3c(cc4sccc43)c2=O)CC1 -5.7%
CCCN(C(=O)CCn1cnc2onc(-c3ccc(F)cc3)c2c1=O)c1ccccc1C -6.91%
O=C(CN1C(=O)COc2ccc(S(=O)(=O)N3CCCCCC3)cc21)N1CCN(c2ccccc2)CC1 2.77%
Cc1cc(C)cc(NC(=O)Cn2nnc(C(=O)NCc3ccco3)c2N)c1 16.3%
O=C(NNc1ncnc2c1cnn2-c1ccccc1)c1ccccc1 7.93%
CCOc1cc(CNC(=O)C(NS(=O)(=O)c2cccs2)C(C)C)cc(OCC)c1OCC (configuration not stated) 13.8%
COc1ccc(NCc2cccn2-c2nnc(N3CCOCC3)s2)c(OC)c1 -12.3%
COc1ccc(NC(=O)CN2CCN(S(=O)(=O)c3ccc(Br)cc3)CC2)cc1 2.61%
COc1ccc(Cl)cc1NC(=O)C(C)N1Cc2ccccc2C1=O (configuration not stated) -2.85%
COCCNC(=O)Cn1c(=O)n(-c2ccc(C)c(C)c2)c(=O)c2c3c(sc21)CCCCC3 5.23%
CN[C@@H]1C[C@H]2O[C@@](C)([C@H]1OC)n1c3ccccc3c3c4c(c5c6ccccc6n2c5c31)C(=O)N[C@H]4O -19.2%
CCOc1ccccc1CNC(=O)c1cccc(NC(=O)c2nsc3ccccc23)c1 4.88%
CCCc1oc2ccc(NS(=O)(=O)c3ccc(OC)cc3)cc2c1C(=O)OCC -26.9%
COc1ccc(C(=O)Nc2ccc3nc(N4CCCCC4)cc(C)c3c2)c(OC)c1 -4.82%
Cc1cn2c(=O)cc(COc3cccc(NC(=O)c4cccc(F)c4)c3)nc2s1 -0.308%
COc1ccc(C(CC(=O)O)NC(=O)c2cc3ccccc3oc2=O)cc1OC (configuration not stated) 31%
CCN(CC)C(=O)Cn1cc(SCC(=O)Nc2cccc(F)c2)c2ccccc21 4.68%
Cc1ccc(S(=O)(=O)c2cnc(SCC(=O)Nc3cccc(Cl)c3)nc2N)cc1C -20.2%
Oc1ccc(Nc2nc3ccccc3n3cnnc23)cc1 -6.26%
CCc1cccc(C)c1NC(=O)CCCn1c(=O)c2cccn2c2cccnc21 -3.97%
Cc1ccc(-n2ncc(C(=O)NCCCN3CCCCC3)c2C2CCN(C(=O)OC(C)(C)C)CC2)c(C)c1 -16%
Cc1ccc(NC(=O)CSc2nnc3nc(C)cc(C)n23)cc1 -16.8%
CC(C(=O)NCc1ccccc1Cl)n1ccc2cc(S(=O)(=O)N3CCCCC3)ccc21 (configuration not stated) 2.06%
CC(=O)c1ccc(N2CCN(c3ccc(NC(=O)c4cccs4)cc3C(=O)O)CC2)cc1 1.01%
O=C(CSc1nc(-c2cccc(Cl)c2)nc2cc(=O)[nH]n12)Nc1ccccc1 6.59%
CCN(CC)C(=O)c1sc(NC(=O)c2nc3ncccn3n2)c(C(=O)OC)c1C -9.58%
O=c1c2ccccc2n2c(-c3ccccc3O)nnc2n1Cc1ccc(F)cc1 1.51%
Cc1ccc(C)c(NC(=O)CN2C(=O)c3cccc4cccc2c34)c1 -17.3%
Nc1[nH]nc2nnc(-c3c(-c4ccccc4)nn4ccccc34)cc12 15.7%
CCCCCC(=O)N1c2ccccc2C(C)(c2ccccc2)CC1(C)C (configuration not stated) 0.563%
COc1ccc(NC(=O)CN2C(=O)C(c3ccc(C(C)(C)C)cc3)=NC2(C)C)cc1Cl -6.39%
Cc1ccc(C)c(N2CCN(C(=O)Nc3cn(CC(C)C)c(=O)c4ccccc34)CC2)c1 20.9%
COc1ccc(Cn2c(C(=O)O)c(CNCC(C)c3ccccc3)c3ccc(OC)cc32)cc1 (configuration not stated) -9.19%
COc1cccc(CCNC(=O)Cn2c(-c3cccs3)cc3ccccc32)c1 -24.6%
CC(C)NC(=O)CCn1c(SCc2c(F)cccc2Cl)nc2c(sc3ccccc32)c1=O 7.78%
Cc1cc(C)cc(-n2c(SCC(=O)NCc3ccco3)nc3c([nH]c4ccccc43)c2=O)c1 -6.21%
CCOC(=O)N1CCN(Cc2nc3cc(NC(C)=O)ccc3n2C(C)C)CC1 -31.4%
CCCCn1c(SCC(=O)Nc2cccc(OC)c2)nc2c(sc3ccccc32)c1=O -0.582%
COc1ccccc1N1CCN(C(=O)C2CCN(S(=O)(=O)c3c(C)noc3/C=C/c3ccc(C)cc3)CC2)CC1 4.9%
Cc1cc(-n2c(SCC(=O)NCc3ccccc3)nc3ccsc3c2=O)ccc1Cl 2.97%
Cc1nnc2c(N3CCN(c4ccccc4F)CC3)nc3ccccc3n12 -14.5%
COc1ccc(NC(=O)NCCc2c(C)nn(C)c2C)c(OC)c1 -0.971%
COc1cccc(NC(=O)CSc2nnc(COc3ccc(Cl)cc3)o2)c1 29%
O=C(CCC1CCCC1)N1CCc2c([nH]c3ccccc23)C1c1ccc(Cl)cc1 (configuration not stated) -11.8%
CCOc1ccc(OCC(=O)NCCS(=O)(=O)N2CCN(c3ccc(F)cc3)CC2)cc1 1.92%

outcome, inactive:
CCN(CC)c1ccc(NC(=O)Cn2c(C)c3cnn(-c4ccccc4)c(=O)c3c2C)c(C)c1
Cc1cccc(-c2cc(NC(=O)COc3ccccc3F)n(-c3ccccc3)n2)c1
CCN(C(=O)Cn1nc(Cc2cccnc2)c2ccccc2c1=O)c1cc(C)ccc1C
CCN(CC)CCOC(=O)c1ccc(NC(=O)CCn2c(=O)oc3ccccc32)cc1
COc1ccc(OC)c(CCNC(=O)C(C)n2nc(C)c3c(C)n(-c4ccc(C)cc4)nc3c2=O)c1 (configuration not stated)
Cc1cc(SCC(=O)NCc2ccccc2)nc(=O)[nH]1
CCC(=O)N1c2nc(C(C)C)nn2C2(CCCCC2)[C@@H]2CCCC[C@@H]21
Cc1ccc(C(=O)Nc2nnc(SCc3cc(=O)n4ccc(C)cc4n3)s2)cc1
O=C(Cn1nc2c(cc1=O)CCCC2)NCc1ccccc1Cl
O=C(Cn1c(SCc2cccc(F)c2)nc2ccncc21)Nc1ccc(Cl)cc1F
Cc1ccc(C(CC(=O)Nc2ccc(C)cc2C)N2Cc3ccccc3C2=O)cc1 (configuration not stated)
CCOC(=O)c1c(NC(C)=O)c2c3c(sc2n1Cc1cccc(Cl)c1)CCCC3
O=C(Nc1cccc2cccnc12)c1ccccc1[N+](=O)[O-]
CCOCCCNC(=O)CN1C(=O)COc2ccc(S(=O)(=O)N3CCCCCC3)cc21
CCOC(=O)c1cnc2c(C)cc(C)cc2c1Nc1cccc(C(=O)O)c1
Cc1cccc(Cn2c(=O)n(Cc3ccc(C(=O)NC4CCN(Cc5ccccc5)CC4)cc3)c(=O)c3ccccc32)c1
Cc1cccc(Cn2ccn(Cc3ccc(Cl)cc3)c(=O)c2=O)c1
CCOC(=O)c1ccccc1NC(=O)NC(C)c1c(-n2cccc2)sc(C)c1C (configuration not stated)
CCC(Sc1nc2c(sc3ccccc32)c(=O)n1CCc1ccccc1)C(=O)N(CC)CC (configuration not stated)
O=C(c1ccc2c(c1)N(Cc1ccccc1)C(=O)c1ccccc1S2(=O)=O)N1CCCC1
O=C(c1ccccc1Br)N(Cc1ccco1)C1CCS(=O)(=O)C1 (configuration not stated)
Cc1cccc(Cc2cnc(NC(=O)C3Cc4ccc(C)cc4C(=O)O3)s2)c1 (configuration not stated)
